In all, about 310,000 compounds went through this assay and about 2,200 (0.71%) showed an effect of 50% or more. Effects have a minus sign here. The list shows a part of the results.
biological target: human ether-à-go-go-related gene (hERG) potassium channel (human, UniProt Q12809); assay: primary screen, population patch clamp on CHO cells stably expressing hERG
Sequence (Q12809 whole entry, looked up): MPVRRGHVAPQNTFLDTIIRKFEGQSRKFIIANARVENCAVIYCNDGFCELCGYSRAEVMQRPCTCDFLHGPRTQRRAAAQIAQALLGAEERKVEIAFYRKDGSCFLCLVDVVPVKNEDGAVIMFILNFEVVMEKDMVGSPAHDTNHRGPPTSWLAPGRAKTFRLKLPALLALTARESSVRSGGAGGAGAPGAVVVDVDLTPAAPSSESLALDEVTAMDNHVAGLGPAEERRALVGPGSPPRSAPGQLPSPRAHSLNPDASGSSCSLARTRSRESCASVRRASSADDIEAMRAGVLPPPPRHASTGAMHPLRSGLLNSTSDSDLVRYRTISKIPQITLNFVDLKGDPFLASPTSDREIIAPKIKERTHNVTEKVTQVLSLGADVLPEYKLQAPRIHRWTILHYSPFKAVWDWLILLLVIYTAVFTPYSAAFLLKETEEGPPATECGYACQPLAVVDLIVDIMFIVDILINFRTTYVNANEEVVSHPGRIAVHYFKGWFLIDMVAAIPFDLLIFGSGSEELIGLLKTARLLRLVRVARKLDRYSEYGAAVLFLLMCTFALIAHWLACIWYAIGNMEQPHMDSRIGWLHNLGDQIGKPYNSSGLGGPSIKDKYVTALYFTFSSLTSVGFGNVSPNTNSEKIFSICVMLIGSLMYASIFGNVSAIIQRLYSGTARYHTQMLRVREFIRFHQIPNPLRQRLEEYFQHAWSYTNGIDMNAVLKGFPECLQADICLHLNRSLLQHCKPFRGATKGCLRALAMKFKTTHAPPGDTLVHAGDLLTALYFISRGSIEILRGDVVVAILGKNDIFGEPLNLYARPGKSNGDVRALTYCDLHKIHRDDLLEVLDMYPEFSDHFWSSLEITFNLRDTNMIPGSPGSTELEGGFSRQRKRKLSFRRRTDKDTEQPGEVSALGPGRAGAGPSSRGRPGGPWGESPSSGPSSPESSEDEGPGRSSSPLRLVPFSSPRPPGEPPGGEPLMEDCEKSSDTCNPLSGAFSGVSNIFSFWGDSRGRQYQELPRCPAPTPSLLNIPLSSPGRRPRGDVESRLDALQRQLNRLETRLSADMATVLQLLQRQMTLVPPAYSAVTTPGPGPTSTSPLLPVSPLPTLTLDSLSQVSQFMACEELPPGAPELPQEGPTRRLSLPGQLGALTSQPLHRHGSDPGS

| Compound | hERG current change (%, negative = inhibition) at 1uM [%] |
| --- | --- |
| Br.Cc1ccc(C(=O)CN(Cc2ccccc2)C2=NCCS2)cc1 | 5.46 |
| CC1CC(=O)Nc2ccccc2N1C(=O)COc1ccc2cc(Br)ccc2c1 (stereo not shown) | 11.3 |
| COc1ccccc1OCc1ccc(C(=O)NCCN(C)C)o1 | 8.42 |
| COc1ccc(CN2CCOCC2)cc1Br | 0.085 |
| S=C(NCC1(c2ccccc2)CCCC1)Nc1ccccc1 | 13.5 |
| Cc1ccc(OC(=O)c2cc3ccccc3o2)cc1 | 12.9 |
| O=C(NC1CCCC1)C(c1ccccc1F)N(C(=O)c1csnn1)C1CC1 (stereo not shown) | 10.5 |
| COC(OC)c1ccnc(-c2ccc(OC(=O)c3ccccc3)cc2)n1 | 18.4 |
| CC(C)CC(=O)NC1(C(F)(F)F)NC(=O)N(c2ccccc2)C1=O (stereo not shown) | 10.3 |
| COc1ccc(C(=O)NCc2ccc3c(c2)OCO3)cc1S(=O)(=O)NCc1ccc(Cl)cc1 | -9.15 |
| O=Cc1sc(N2CCOCC2)nc1-c1ccccc1 | 8.95 |
| COC(=O)c1sccc1NC(=O)COc1ccc(C)cc1 | 12.1 |
| Nc1ccc(S(=O)(=O)c2cccc(N)c2)cc1 | 4.78 |
| CC1C(=O)OC(c2ccc(Cl)cc2)C(C)(C)C1=O (stereo not shown) | 10.9 |
| C/C(=N\Nc1cc(N2CCOCC2)nc(C)n1)c1ccc(F)cc1 | 15.9 |
| CN1CCCN(C(=O)c2ccc(Br)s2)CC1 | 1.6 |
| O=Nc1onc(-c2ccc([N+](=O)[O-])cc2)c1NO | 4.96 |
| O=C(Cc1ccccc1)N1CCN(Cc2ccccc2Cl)CC1.O=C(O)C(=O)O | 15.7 |
| Cc1ccc2c(c1)NCC(C(=O)NCc1ccccc1)O2 (stereo not shown) | 10.4 |
| O=c1[nH]c(C2CCN(S(=O)(=O)c3ccc4c(c3)OCCO4)CC2)nc2c1nnn2Cc1cccc(F)c1 | 15 |
| O=C(c1ccc(CS(=O)(=O)c2c(Cl)cccc2Cl)o1)N1CCCC1 | -3.65 |
| CC(C)C[C@H](NC(=O)N1c2ccccc2NC(=O)[C@@H]1C(C)C)C(=O)N[C@@H](Cc1ccccc1)C(=O)O | 4.94 |
| CSc1nc(-c2ccccc2)nc(N2CCOCC2)c1C(C)=O | 15.4 |
| O=C(Nc1ncc(Cc2ccccc2)s1)C1=NCCN1 | 5.75 |
| CN(CC(=O)Nc1nc2ccccc2s1)S(=O)(=O)c1ccccc1 | 10.5 |
| COc1ccc(Cc2nc(=S)[nH][nH]2)cc1Br | 6.38 |
| O=C(O)C1Cc2c([nH]c3ccccc23)C(c2ccc3c(c2)OCO3)N1 (stereo not shown) | 12.7 |
| Cc1ccc(NC(=O)CSc2nnc(C3COc4ccccc4O3)o2)c(Cl)c1 (stereo not shown) | 8.71 |

| Compound | hERG current change (%, negative = inhibition) at 1uM [%] |
| --- | --- |
| N#Cc1c(NC(=O)c2cc(-n3cnnc3)ccc2Cl)sc2c1CCCC2 | 4.88 |
| O=C1C(Cl)=C(N2CCOCC2)C(=O)N1CCc1ccccc1 | -11.8 |
| CN(C)S(=O)(=O)c1ccc(C(=O)Nc2nnc(-c3ccc4c(c3)CCCC4)o2)cc1 | 9.35 |
| Cc1ccccc1SCC(=O)NNC(=O)c1ccccc1O | 12.3 |
| COc1ccccc1CNC(=O)C1=CCN(S(=O)(=O)c2ccc(C)cc2)CC1 | 5.9 |
| COc1ccc(NC(=O)CSc2nnc(-c3cccc(O)c3)o2)cc1 | 13.8 |
| O=C(O)c1ccccc1Sc1ncnc2sccc12 | 3.87 |
| CCOc1cc(C2NC(=O)CCC2[N+](=O)[O-])cc(Br)c1OC (stereo not shown) | 7.99 |
| CN(Cc1ccncn1)C(=O)CC1C(=O)NCCN1Cc1cccc(Oc2ccccc2)c1 (stereo not shown) | 11.6 |
| COC(=O)N/N=C/c1cc(Br)ccc1O | 7.24 |
| O=C(N/N=C/c1ccc(N2CCOCC2)c([N+](=O)[O-])c1)c1ccc(F)cc1 | -10 |
| COc1cc(NC(=O)c2ccc([N+](=O)[O-])cc2)c(OC)cc1NC(=O)CC(C)C | 0.276 |
| COc1cc(NC(=O)CN(C)S(=O)(=O)c2ccc3c(c2)CCC(=O)N3)cc(OC)c1 | -4.52 |
| O=C(Nc1ccc(C(F)(F)F)cc1)c1cc(S(=O)(=O)NCC2COc3ccccc3O2)ccc1F (stereo not shown) | 12.7 |
| C=CCOC(=O)C1=C(C)N=c2s/c(=C3\C(=O)N(CC(=O)O)c4ccccc43)c(=O)n2C1c1ccc(OC)cc1.CC(=O)O (stereo not shown) | 9.99 |
| O=C(O)CCC(=O)N1CCc2cc(S(=O)(=O)NC3CCCc4ccccc43)ccc21 (stereo not shown) | 1.13 |
| O=C(COC(=O)CNC(=O)c1ccccc1)Nc1ccc(F)c([N+](=O)[O-])c1 | 6.93 |
| CN(C)S(=O)(=O)c1ccc(Cl)c(C(=O)Nc2nc3ccccc3[nH]2)c1 | 11.8 |
| Cc1ccnc(NS(=O)(=O)c2ccc(NC(=O)C3CCCO3)cc2)n1 (stereo not shown) | 4.25 |
| CC(C)Cn1c(-c2cc(Br)ccc2F)nc2c1c(=O)[nH]c(=O)n2CC(C)C | 8.49 |
| CCc1ccc(Nc2nnc(SCC(=O)Nc3ccc(C(=O)O)cc3)s2)cc1 | 13 |
| CC(C)(C)C(=O)Nc1cc(S(=O)(=O)N2CCCCC2)ccc1N1CCCCC1 | 12.6 |
| CCCSCCCNC(=O)Cn1cc2c(n1)CCCCC2 | 11.8 |
| O=C(O)C(F)(F)F.O=C1C(Cc2ccccc2)Nc2ncnc(N3CCN(c4ccccc4)CC3)c2N1Cc1ccccc1 (stereo not shown) | 9.42 |
| CCOC(=O)c1c(NC(=O)CSc2nc3cccnc3n2C)sc(C(C)=O)c1C | 10.7 |
| CCCCn1c(O)c(C(CC)=NC(C)c2ccccc2)c(=O)[nH]c1=O (stereo not shown) | -2.57 |
| O=C(O)CCC(=O)N(Cc1ccco1)C1CC(=O)N(c2ccccc2)C1=O (stereo not shown) | 12.5 |
